Data reported in PubChem BioAssay AID493208 (National Center for Advancing Translational Sciences (NCATS), 2011).
The whole screen tested about 44,000 compounds, of which about 340 (0.77%) were called active. About 5% were inconclusive and are not listed. The call rests on the fitted dose curve; in most records, active means well fitted inhibition curve with a large enough effect; inconclusive means small, poorly fitted or top-dose-only effect; inactive means flat fitted curve, though single readings scatter. This is one part of the list.

Test: Acumen qHTS Assay for Inhibitors of the mTORC1 Signaling Pathway in MEF (Tsc2-/-, p53-/-) Cells: Sytravon; further: nearly all actives have a fitted effect of over 50% in size
Settings: phospho-rpS6 immunofluorescence/PI, 24 h; series mostly up to 38.3 µM; activity change, negative = inhibition: at the top concentration
Source text: NIH Molecular Libraries Probe Production Centers Network [MLPCN] NIH Chemical Genomics Center [NCGC] MLPCN Grant: NS059428-01 Assay Submitter (PI): Blenis, John; Hoffman, Greg; Harvard University NCGC Assay Overview: The mammalian target of rapamycin (mTOR) is an intracellular serine/threonine kinase Aberrant regulation of mTOR signaling plays a causative role in a number of human diseases, including cancer, benign tumors such as lymphangioleiomyomatosis (LAM) and Tuberous Sclerosis Complex (TSC), and metabolic diseases such as diabetes and obesity. This project aims to identify inhibitors of ribosomal protein S6 (rpS6) phosphorylation. The phosphorylation of rpS6 is a key event downstream of mTOR activation. The assay uses a phospho-specific antibody of phospho-rpS6 to detect inhibitors of mTOR activation. Mutations in the Tsc1 and Tsc2 genes are the underlying genetic lesions responsible for TSC, causing constitutive activation of the mTORC1 pathway and leading to profound effects on cell metabolism. Aberrant metabolism in cancer has recently received significant attention as a target to develop therapeutic agents in the treatment of cancer.1 As Tsc2-/- cells have lost the ability to respond to energy and growth factor deprivation, these cells are unable to properly down regulate cellular biosynthetic processes in response to metabolic stress, and are thus extremely sensitive to glucose deprivation-induced death.2 A central goal of this project is to explore the unique cell survival and metabolic properties of cells with Tsc1 or Tsc2 by screening for compounds that selectively target the Tsc2-/- MEFs by screening both Tsc2-/- and WT MEF cell lines. We hope to better understand these aspects of TSC physiology in order to exploit them for therapeutic benefit.
NCGC Acumen Assay Protocol Summary: For quantitative high throughput analysis of mTORC1 signaling, we developed a cell-based assay for immuno-fluorescence based detection of rpS6 phosphorylation on the Acumen Explorer that will be used a platform for the primary small molecule screen. Mouse embryonic fibroblasts (MEFs) are cultured in 1536-well plates using DMEM + 10% FBS. Twenty-four hrs after plating, test compounds (solubilized in DMSO) are delivered and incubated with the cells for 24 hrs at 37 degree Celsius. Following the incubation, media with compound is aspirated and the cells are fixed in 4% paraformaldehyde (PFA) containing PBS + 0.2% TX-100. Next, PFA is aspirated, cells are washed two times with PBS plus 0.2% TX-100 and the cells are blocked for 1 hr at room temperature (blocking buffer: LiCOR Blocking Buffer plus 0.2% TX-100). […] Cells are washed two times with PBS plus 0.2% TX-100, and stained with 10 uM propidium iodide (PI) for 20-25 minutes for cell number measurement (1:500 dilution of Hoescht staining is also added for IN Cell imaging). The plates are scanned on the Acumen Explorer laser scanning instrument (TTP Labtech) using the 488nm laser for simultaneous excitation of the Alexa-488 and PI. […] The normalized phospho-S6 staining is calculated as the ratio of the integrated Alexa 488 intensity divided by the integrated PI intensity for the single concentration rapamycin control (7.5 nM) and DMSO columns. […] Inhibition of the pathway is defined based on the normalized phospho-S6 intensity in rapamycin treated cells. Active cells are defined as those with a normalized phospho-S6 staining above this threshold, and each treatment is reported as the % positive cells in the well, where thresholds are defined by selecting wells with the highest and lowest signal and differentiating between the % non-active and % active populations. In addition to the pathway specific phospho-S6 endpoint, the number of PI stained cells from the Acumen is recorded as a measure of cell viability. The primary screen was performed with a MEF cell line in a defined genetic background, Tsc2-/-, p53-/- cell line stably transfected with an empty vector control (Tsc2-/- MEF).

Activity change, negative = inhibition, inactive:
Cc1c(CCC(=O)NCCc2ccccc2F)c(=O)oc2cc(O)ccc12 -0.0713%
O=C(c1ccc(CSc2nc3ccncc3n2Cc2ccccc2F)cc1)N1CCCCC1 -6.6%
CCOc1ccc(NC(=O)NCCCN2CCN(c3ccc(OC)cc3)CC2)cc1 -7.77%
CCOc1ccccc1Nc1sc(C(=O)c2ccc(Cl)cc2)c(N)c1C#N -2.77%
Cc1ccccc1NC(=O)Cn1c(=O)n(Cc2ccco2)c(=O)c2cccnc21 4.27%
Cc1ccc(-c2cc(C(=O)NCCc3ccccc3)c3ccccc3n2)cc1C 11.1%
O=C(NCc1ccc(F)cc1)c1cccc(N2CCCS2(=O)=O)c1 -17.7%
CN(C)c1ccc(/C=C(\C#N)c2nc3ccccc3c(=O)[nH]2)cc1 -18.4%
CC(C)c1ccc(NC(=O)CNC(=O)Cn2ccc3ccccc3c2=O)cc1 2.74%
Cc1ccc(Cl)cc1NC(=O)C1CCCN(S(=O)(=O)c2c(C)noc2/C=C/N(C)C)C1 (configuration not stated) -1.02%
COC(=O)c1c(NC(=O)CCCOc2ccccc2)sc2c1CCC(C)C2 (configuration not stated) 1.82%
CCC(=O)N1CCc2cc(S(=O)(=O)CCC(=O)N(C)c3ccc(OC)cc3)ccc21 -13%
Cc1cc(Nc2cccc(Cl)c2)nc2ccc(NC(=O)c3ccc(F)cc3Cl)cc12 0.205%
O=C(Nc1ccccc1C(=O)OCc1cc(=O)n2ccsc2n1)c1cccc(F)c1 0%
Cc1ccc2nc(/C(C#N)=C/c3ccc(-c4ccc(F)cc4F)o3)[nH]c2c1 -7.46%
CSc1cccc(NC(=O)c2ccc3c(c2)c(C)c(C)n3Cc2ccc(F)cc2)c1 -22.5%
Cc1cc(C)c2c(CC(=O)Nc3nnc(CC(C)C)s3)coc2c1 -8.46%
COc1ccc(CCCc2nnc(SCC(=O)Nc3ccc(C)c(C)c3)o2)cc1 -1.44%
CCc1ccc(S(=O)(=O)c2cn(C)c3cc(N4CCN(CC)CC4)c(F)cc3c2=O)cc1 0%
O=C(c1ccc(CS(=O)c2ccccc2Cl)o1)N1CCN(c2ccccc2F)CC1 (configuration not stated) -18%
O=S1(=O)N=C(Nc2cccc(C(F)(F)F)c2)c2ccccc21 0.533%
COc1ccccc1-c1c(C)nn2c(C(F)(F)F)cc(-c3ccccc3)nc12 -15.7%
Cc1ccc(CN2CCC(CNC(=O)Nc3c(C)cccc3C)C2)cc1 (configuration not stated) -2.22%
O=C(CCC1N=C2c3ccccc3N=C(SCc3cccc(Cl)c3)N2C1=O)NCc1cccs1 (configuration not stated) -4.33%
CCC(=O)Nc1cccc(-c2cn3c(C)csc3n2)c1 -7.94%
COc1cccc(C(=O)N(Cc2cccc(Cl)c2)Cc2ccco2)c1 -3.94%
CC(C)(C)c1ccc(OCC(=O)Nc2c(C(=O)c3ccc(F)cc3)oc3ccccc23)cc1 0.113%
COc1cc(C(=O)NCCSc2c(-c3ccccc3)[nH]c3ccccc23)cc(OC)c1OC -3.14%
CCOC(=O)c1ccccc1NC(=O)CSc1ncc2c(n1)-c1ccccc1N(CC)S2(=O)=O 2.62%
CCC(C)n1c(=N)c(S(=O)(=O)c2ccccc2)cc2c(=O)n3ccccc3nc21 (configuration not stated) -16.8%
Cc1nn(C)c2c1c(-c1ccccc1)cc(=O)n2CC(=O)NC(C)(C)C -0.176%
COc1cc2nc(SCc3ccc(F)cc3)n3nc(CCn4c(C)nc5ccccc54)nc3c2cc1OC -10.1%
CCOc1ccccc1NC(=O)N1CCN(Cc2cc(=O)n3nc(-c4ccc(C)cc4)sc3n2)CC1 -3.49%
CCCNC(=O)Cn1c(=O)cc(C)c2c(C)nn(-c3cccc(F)c3)c21 -5.68%
COc1cc(Cl)c(C)cc1NC(=O)NC1COc2ccccc2C1 (configuration not stated) -14.4%
CCc1ccc(-c2ccc3nnc(SCC(=O)Nc4cccc(C(C)=O)c4)n3n2)cc1 0.441%
COc1ccc(C2=C(N3CCN(c4cc(Cl)ccc4C)CC3)c3ccccc3C2=O)cc1 -3.1%
COc1ccc(CCNC(=O)Cn2c(-c3cccs3)cc3cc(F)ccc32)cc1OC -9.7%
COc1ccc(CCNC(=O)CN2C(=O)COc3ccccc32)cc1OC -10.2%
COc1cccc(CNC(=O)c2ccc(CS(=O)c3ccccc3)o2)c1 (configuration not stated) -9.91%
COc1ccc(NC(=O)c2oc3ccccc3c2NC(=O)c2cc(OC)c(OC)c(OC)c2)cc1 -0.908%
Cc1cccc(Oc2nc3c(c(=O)n(C)c(=O)n3C)n2C)c1C -4.17%
CCOC(=O)N1CCN(C(=O)c2cnn(-c3cccc(F)c3)c2-n2cccc2)CC1 -3.2%
CCc1ccccc1NC(=O)C(CCSC)NS(=O)(=O)c1ccc2c(c1)oc(=O)n2C (configuration not stated) -1.03%
Cc1ccccc1-c1nn2c(=O)cc(CN3CCN(C(=O)c4ccccc4Br)CC3)nc2s1 0%
Oc1c(C(c2ccc(Cl)cc2)N2CCOCC2)sc2nc(-c3ccco3)nn12 (configuration not stated) -5.97%
CC1CCN(S(=O)(=O)c2ccc3nc(N4CCN(c5ccccc5)CC4)ccc3c2)CC1 1.51%
COc1cccc([C@H]2Nc3ccc(S(=O)(=O)Nc4cc(C)ccc4C)cc3[C@H]3C=CC[C@H]32)c1 -13.7%
Fc1cccc(CSc2nc(NCCc3ccccc3)c3ccccc3n2)c1 -0.783%
COc1ccccc1OCC(=O)Nc1cc(-c2ccc(C)cc2)no1 2.37%
CC(=O)c1cc(-c2ccc(F)cc2)n(CC(=O)NCc2ccc(C)cc2)c1C -2.62%
COc1cc(NS(=O)(=O)c2cccs2)cc(OC)c1 1.72%
Cc1cc(C)c(OCC(=O)Nc2cccc(-c3nc4ncccc4o3)c2)c(Br)c1 -13.1%
Cc1ccc(CSc2ncccc2C(=O)O)cc1 0.233%
Cc1ccc(S(=O)(=O)N2CCCc3cc(NC(=O)c4ccc(C(C)(C)C)cc4)ccc32)cc1 4.61%
CCN(CC)c1ccc(NC(=O)c2sc3nc(-c4ccccc4)cn3c2C)cc1 -12.4%
Cc1nc(-c2ccc(F)cc2)sc1CCNC(=O)C(=O)Nc1ccc2c(c1)OCO2 2.02%
CCCn1c2ccccc2c2cnn(CC(=O)NCCc3cc(OC)ccc3OC)c(=O)c21 -3.06%
CCOC(=O)c1cccc(NC(=O)NCc2ccc3c(c2)CCN3C(=O)CC)c1 0.91%
COc1ccc(N2CCN(C(=O)c3nn(C)c4c3CSc3ccccc3-4)CC2)cc1 -19.4%
CC1=C(C(=O)Nc2cccc(C(F)(F)F)c2)C(c2ccccn2)n2ncnc2N1 (configuration not stated) 2.14%
CCc1ccc(C(=O)c2cn(CC(=O)Nc3ccc(OC)c(Cl)c3)c3nc(C)ccc3c2=O)cc1 0.145%
Cc1ccc(Cl)cc1NC(=O)Cn1cc(S(=O)(=O)Cc2ccccc2Cl)c2ccccc21 -1.55%
CCC(=O)Nc1ccccc1-c1nc2ccccc2n(CC(=O)c2ccc(Br)cc2)c1=O -0.209%
Cc1cc(C)cc(OCC(=O)NCC2(N3CCOCC3)CCCCC2)c1 -15.7%
O=C(Cn1c(SCCOc2ccccc2Cl)nc2ccccc21)N1CCCCC1 -2.28%
CCCc1cc(=O)[nH]c(SCc2nc(-c3ccc(OC)cc3)no2)n1 -22.2%
COc1ccc(CC(=O)NCCc2csc(-c3cccc(F)c3)n2)cc1OC -1.83%
N#Cc1ccccc1Cn1c(=O)n(-c2ccc(F)c(Cl)c2)c(=O)c2sccc21 -1.43%
Cc1ccc(S(=O)(=O)Nc2cc3c(C(=O)OCc4ccccc4)c(C)oc3c3ccccc23)cc1 -10.3%
O=C(C1CCN(c2ncnc3c2nc2n3CCCCC2)CC1)N1CCN(c2ccccc2)CC1 1.54%
CCOC(=O)c1ccccc1NC(=O)c1sc2ncn(CC)c(=O)c2c1C -2.81%
COc1ccc(F)cc1NC(=O)C1CCN(c2nc(-c3ccc(OC)c(OC)c3)no2)CC1 -0.308%
Cc1ccc(-n2nc(C)c3c(C)cc(=O)n(CC(=O)NCc4ccc(OC(C)C)cc4)c32)cc1 -15.1%
O=C(COc1ccc(F)cc1)Nc1cccc(OCc2cc(=O)n3ccccc3n2)c1 -1.79%
COc1ccc(Nc2ncc(C(=O)Nc3cc(C)ccc3OC)c3ccccc23)cc1 -17.2%
Cc1ccc2c(c1)c1c(c(=O)n(-c3ccccc3C)c(=O)n1Cc1ccccc1F)n2C -0.264%
COc1ccc(NC(=O)CCc2c(C)nc3c(-c4ccccc4)c(C)nn3c2C)cc1Cl -7.62%
Cn1c(C(=O)NCc2ccc(Cl)cc2)cc2c(=O)n(C)c3ccccc3c21 0.344%
Cc1ccc(Cl)cc1NC(=O)Cn1c(=O)oc2cc(S(=O)(=O)N3CCCCCC3)ccc21 -1.25%
COc1ccc(-c2noc(C(C)NC(=O)c3ccco3)n2)cc1 (configuration not stated) -17.6%
Cc1ccc(NC(=O)c2ccc(=O)n(CC(=O)Nc3cc(C)cc(C)c3)n2)cc1 -0.321%
Cc1ccc(OCC(=O)Nc2c(Cl)ccc3nsnc23)cc1C -0.655%
Fc1ccc(-n2ncc3c(Nc4ccc(Oc5ccccc5)cc4)ncnc32)cc1 13.5%
COc1cc(C(c2c(C)[nH][nH]c2=O)c2c(C)[nH][nH]c2=O)ccc1OC(=O)c1ccccc1F -4.45%
CCCN1CCN(CCCNC(=O)c2cnn(-c3ccc(C)cc3)c2-n2cccc2)CC1 -1.81%
CC(=O)c1cccc(Nc2c3c(nc4nc(-c5cccs5)nn24)CCCC3)c1 -5.67%
CC(=O)Nc1ccc(NC(=O)CSc2nnc3c4cc(Br)ccc4n(C)c3n2)cc1 8.14%
COC(=O)c1ccc2oc(=O)c(S(=O)(=O)c3ccc(C)cc3)cc2c1 -7.83%
CCCC(=O)Nc1cccc(-c2nc3cc(C)c(C)cc3o2)c1C 13.9%
Cc1ccc(CNC(=O)C2CCN(c3nc4ccc(C)cc4[nH]3)CC2)cc1 0%
Cc1ccc2c(c1)c1c(c(=O)n(-c3cccc(Cl)c3)c(=O)n1C)n2C -1.66%
CCSc1ncc(Cl)c(C(=O)Nc2sc(C(C)=O)c(C)c2C(=O)OC)n1 4.44%
COc1cc(OC)c(NC(=O)c2cnc(N3CCCC3)nc2C)cc1Cl 13.7%
COc1ccc(CNC(=O)c2ccc(Sc3ccc(Cl)cc3)c(NC(C)=O)c2)c(OC)c1 8.97%
CCOC(=O)c1c(NC(=O)c2cc3nc(-c4ccc(OC)cc4)cc(C(F)(F)F)n3n2)sc(C)c1C -4.6%
O=C1CN(C(=O)COc2ccc(Cl)cc2Cl)C(c2ccc(F)cc2)c2cc(F)ccc2N1 (configuration not stated) -5.1%
